Laboratory results reported in the RNAGym collection of RNA variant scans (doi:10.7554/elife.90254).
The source gives no read counts; variants with many changes may rest on few reads.

B1: LINE1-full (parent)
chain: UACGUAGGUGGUUUUCCCCUGAUAGUGCUAAGGGGGCCUGGAAGUUUGGACUGGGCAGAGCUCAACACAGCGUGGCAAAGUGGCUGUGGCUAGACUGCCUCUCUGGAUUCCUCGUCACUCAGCAGGGCAUCUCUGAGAGAAAUGCC

Variants of: B1
Experiment: self-cleavage, relative activity (ratio to wild type); higher = more cleavage; in vitro, sequencing; the parent is a self-cleaving ribozyme

Variant | self-cleavage
UACGUAGGUGGUUUCCCCCUGAUAGUGCUAAGGGGGCCUGGAAGUUUGGACUGGGCAGAGCCCAACACAGCGUGGCAAAGUGGCUGUGGCUAGACUGCCUCUCAGGAUUCCUCGUCACUCAGCAGGGCAUCUCUGAGAGAAAUGCC | 0.1
UACGUAGGUGGUUUACUCCUGAUAGUGCUAAGGGGGCCUGGAAGUUUGGACUGGGCAGAGCUCAACACAGCGUGGCAUAGUGGCUGUGGCUAGACUGCCUCUCUGGAUUCCUCGUCACUCAGCAGGGCAUCCCUGAGAGAAAUGCC | 1.57
UGCGUAGGUGGUUUUCCCCUGAUAGUGCUAAGGGGGCCUGGGAGUUUGGACUGGGCAGAGCUCAACACAGCGUGGCAAAGAGGCUGUGGCUAGACUGCCUCUCUGGAUUCCUCGUCACUCAGCAGGGCAUCUCUGAGAGAAAUGCC | 1.19
UACGUAGGUGGUUUUCCCCUGAUAGUGCUAAGGGGGCCUGGAAGUUUGGACUGGGCAGAGCUCAAAACAGCGUGGCAAAGUGUCUGUGGCUAGACUGCCUCUCUGGAUUCCUCGUCGCUCAGCAGGGCAUCUCUGAGGGAGAUGCC | 0.02
UACGUAGGUGGUUUUCCCCUGAUAGUGCUAAGGGGGCCUGGAAGAUUGGACUGGGCAGAGCUCAACACAGCGUGGCAAAGUGGCUGUGGCUAGACUGCCUCUCUGGAUUCCUCGUCACUCAGCAGGGCAUCUCUGUGAGAAGUGCC | 1.3
UACGUAGGUGGUUUUCCCCUGAUAGUGCUAAGGGGGCCAGGAAGUUUGGACUGGGCAGAGCUCAACACGGCGUGGCAAAGUGGCUGUGGCUAGACUGCCUCUCUGGAUUCCUCGUCACUCAGCGGGGCAUCUCUGAGAGAAAUGCC | 0
UACGUAGGUGGUUAUCCCCUGAUAGUGCUAAGGGGACCUGGAAGUUUGGACUGGGCAGAGCUCAACACAGCGUGGCAAAGUGGCUGUGGCUAGACUGCCUCUCUGGAUUCCUCGACACUCAGCAGGGCAUCUCUGAGGGAAAUGCC | 0.82
UACGUAGGUGGUUUUCCCCUGAUAGUGCUAAGGGGGCCUGGAAGUUUGGUCUGGGCUGAGCUCAACACAGCGUGGCAAAGCGGCUGUGGCUAGACUGCCUCUCUGGAUUCCUCGGCACUCAGCAGGGCAUCUCUGAGAGAAAUGCC | 0
UACGUAGGUGGUUUUCCCCUGAUAGUGCUAAGGGGGCCUGGAAGUUUGGACUGGGCAGAGCUCAACACAGCGCGGCAAAGUGGCAGUGGCUAGACUGCCUCUCUGGAUUCCUCGUCACUCUGCAGGGCAUCUCUGAGAGAAAUGCC | 0.12
UACGUAGGUGGUUUCCCCCUGAUAGUGCUAAGGGGGCCUGGAAGUUUGGACUGGGCAGAGCUCAACACAGCGUGGCAAAGUGGCUGUGGCUAGACUGCCUCUCUGGAUUCCUCGUCACUCUGCAGGGCAUCUCUGAGAGGAAUGCC | 2.17
UACGUAGGCGGUUUUCCCCUGAUAGUGCUAAGGGGGCCUGGAAGUUUGGACUGGGCAGAGCUCAACACAGCGUGGCAAAGUGGCUGUGGCUAGACUGCCUCUCUGGAUACCUCGUCACUCAGCAGGGCAUCUCUGAGAGAAGUGCC | 0.97
UACGUAGGUGGUUUUCCCCUGAUAGUGCUAAGGGGGCCUGGAAGUUUGGACUGGGCAGAGCUCAACGCAGCGUGGCAUAGUGGCUGUGGCUAGACUGCCUCUCUGGAUUCCUCGUCACUCAGCAGGGCUUCUCUGAGAGAAAUGCC | 0.55
UGCGUAGGUGGUUUUCCCCUGAUAGUGCUAAGGGGGCCUGGAAGUUUGGACUGGGCAGAGCUCAACACAGCGUGGCAAAGUGGCUGUGGCUAGAUUGCCUCUCUGGAUUCCUCGCCACUCAGCAGGGCAUCUCUGAGAGAAGUGCC | 1.31
UACGUAGGUGGUUUUCCCCUGAUAGUGUUAAGGGGGCCUGGAAGUUUGGACUGGGCAGAGCCCAACACAGCGUGGCAAAGAGGCUGUGGCUAGACUGCCUCUCUGGAUUCCUCGUCACUCUGCAGGGCAUCUCUGAGAGAGAUGCC | 0.03
UACGUAGGUGGUUUUCCCCUGAUAGUGCUAAGGGGGCCCGGAAGUUUGGACUGGGCAGAGCUCUACACAGCGUGGCAAAGUGGCUGUGGCUAGACUGCCCCUCUGGAUUGCUCGUCACUCAGCAGGGCAUCUCUGAGAGAAACGCC | 0.94
UACGUAGGUGGUUUUCCCCUGAUAGUGCUAAGGGGGCCUGGGAGUUUGGACUAGGCAGAGCUCAACACAGUGUGGCAAAGUGGCUGUGGCUAGACUGCCUCUCUGGAUUCCUCGUCACUCAGCAGGGCAUCUCUGAGAGAAAUGCC | 0.58
UACGUAGGUGGUUUUCCCCUGAUAGUGCUAAGGGGGCCUGGAAGUUUGGACUGGGCAGAGCUCAACACAGCGUGGCAAAGUGGCUGUGGCUAGACUGCCUCUCUGGAUUCCUCGUCACUCAGCAGGGCAUCUCUGAGGGGAAUGUC | 1.07
UACGUAGGUGGUUUUCCCCUGAUAGUGCUAAGGGGGCCUGGAAGUUUGGACUGGGCAGAGCUCAACACAGCAUGGCAAAGUGGCUGUGGCUAGACUGCCUCUCUGGAUUCCCCGUCACUCAGCAGGGCAACUCUGAGAGAAAUGCC | 1.83
UACGUAGGUGGUUUUCCCCCGAUAGUGCUAAGGGGGCCUGGAAGUUUGGACUGGGCAGAGCUCAACACAGCGUGGCAAGGUGGCUGUGGCUAGACUGCCUCUCUGGAUUCCUCGUCACUCAGCAGGGCAUCUCUGAGGGAAAUGCC | 1.24
UACGUAGGAGGGUUUCCCCAGAUAGUGCUAAGGGGGCCUGGAAGUUUGGGCUGGGCAGAGCUCAACACAGCGUGGCAAAGUGGCUGUGGCUAGACUGCCUCUCUGGAUUCCUCGUCACUCAUCAGGGCAUCUCUGAGAGAAAUGCC | 0.34

Variant | self-cleavage
UACGUAGGUGGUUUUCCCCUGAAAGAGCUAAGGGGGCCUGGAAGUUUGGACUGGGCAGAGCUCGACACAGCGUGGCAAAGUGGCUGUGGCUAGACUGCCUCUCUGGAUUCCUCGUCACUCAGCAGGGCAUCUCUGAGAGAGAUGCC | 0.15
UACGUAGGUGGUCUUCCCCUGAUAGUGCUAAGGGGGCCUGGAAGUUUGGACUGGGCAGAGCUCAACACAGCGUGGCAAAGUGGCUGUGGCUAGACUGCCUCUCCGGAUUCCUCGUCACUCAGCAGGGCACCUCUGAGAGGAAUGCC | 1.41
UACGUAGGUGGUUUUCCCCUGAUAGUGCUAAGGGGGCCUGGAAGUUUGGACUGGGCAGAGCUCAACACAGCGUGGCUAAGCGGCAGUGGCUAGACUGCCUCUCUGGAUUCCUCGUCACUCAGCAGGGCAUCUCUGAGAGAAAUGCC | 0.33
UACGUAGGUGGUUUUCCCCUGAUAGUGCUAAGGGGACCUGGAAGUUUGGACUGGGCAGAGCUCAACACAGCGUGGCAAAGUGGCUGCGGCUAGACUGCCUCUCUGGAUUCCUCGUCACUCAGCGGGGCAUCUCUGAGAGAUAUGCC | 0.04
UACGUAGGUGGUUUUCCCCCGAUAGCGCUAAGGGGGCCCGGAAGUUUGGACUGGGCAGAGCUCAACACAGCGUGGCAAAGUGGCUGUGGCUAGACUGCCUCUCUGGAUUCCUCGUCACUCAGCGGGGCAUCUCUGGGAGAAAUGCC | 1.23
UACGUAGGUGGUUUUCCCCUGAUAGUGCUAAGGGGGCCUGGAAGUUUGGACUGGGCAGAGCUCAACACAGCGAGGCAAAGUGGCUGUGGCUAGACUGCCUCUCUGGAUUCCUCGUUACCCAGCAGGGCAUCUCUGAGAGAAAUGCC | 1.51
UACGUAGGUGGUUUUCCCCCGAUAGCGCUAAGGGGGCCUGGAAGUUUGGACUGGGCAGAGCUCAACACAGCGUGGCAUAGUGGCUGUGGCUAGACUGCCUCUCUGGAUUCCUCGUCACUCAGCAGGGCAUCUCUGAGAGAAAUGCC | 2.4
UACGUAGGUGGUUUUCCCCCGAUAGUGCUAAGGGGGCCUGGAAGUUUGGACUGGGCAGAGCUCAACACAGCGUGGCAAAGUGGCAGUGGCUAGACUGCCUCUCUGGACUCCUCGUCACUCAGCAGGGCAUCUCUGAGAGAAAUGCC | 0.16
AACGUAGGUGGUUUUCUCCUGAUAGCGCUAAGGGGGCCUGGAAGUUUGGACUGGGCAGAGCUCAACACAGCGUGGCAAAGUGGCUGUGGCUGGACUGCCUCACUGGAUUCCUCGUCACUCAGCAGGGCUUCUCUGAGAGAAAUGCC | 0.32
UACGUAGGUGGUUUUCCCCUGAUAGUGCUAAGGGGGCCUGGAAGUUUGGACUGGGCAGAGCUCAACACAGCGUGGCAAAGUGGCCGUGGCUAGACUGCCUCUCAGGAUUCCUCGUCACUCAGCAGGGUAUCUCUGAGAGAAAUGCC | 0.15
UACGUAGGUGGUUCUCCCCUGCUAGUGCUAAGGGGGCCUGGAAGUUUGGACUGGGCAGAGCUCAACACAGCGUGGCAAAGUGGCUGUGGCCAGACCGCCUCUCUGGAUUCCUCGUCACUCAGCAGGGCAUCUCUGAGAGAAGUGCC | 0.54
UACGUAGGUGGUUUUCCCCUGAUAGUGCUAAGGGGGCCUGGAAGUUUGGACAGGGCAGAGCUCAACACAGCGCGGCUAAGUGGCUGUGGCUAGACUGCCUCUCUGGACUCCUCGUCACUCAGCAGGGCAUCUCUGAGAGAAAUGCC | 1.45
UACGUAGGUGGUAUCCCCCUGAUAGUGCUAAGGGGGCCUGGGAGUUUGGACUGGGCAGAGCUCAACACAGCGUGGCAAAGUGGCUGUGGCUAGACUGCCUCUCUGGAUUCCUCGUCACUCAGCAGGGCAUCUCCGAGAGAAAUGCC | 0.5
UACGUAGGUGGUUUUCCCCUGAUAGUGCUAAGGGGGCCUGGAAGUUUGGACUGGGCAGAGCUCAACACAGCGUGGCAAAGUGGCCGUGGCUAGUCUGCCUCUCUGGAUUCCUCGCCACUCAGCGGGGCAUCUCUGAGAGAAAUGCC | 0
UACGUAGGUGGUUUUCCCCUGAUAGUGCUUAGGGGGCCUGGAAGAUUGGACUGGGCAGAGCUCAACACAGCGUGGCAAAGUGGCUGUGGCUAGACUGCCUCUCCGGAUUCCUCGUCACUCAGCAGGGCAUCUCUGAGAGAAAUGCC | 0.88
UACGUAGGUGGCUUUCCCCUGAUAGUGCUAAGGGGGCCUGGAAGUUUGGACUGGGCAGAGCUCAACACAGCGUGGCAGAGUGGCUGUGGCUAGACAGCCUCUCUGGAUUCCUCGUCACUCAGCAGGGCAUCUCGGAGGGAAAUGCC | 0.07
UACGUAGGUGGUUUUCCCCUGAUAGUGCUAAGGGGGCCUGGAAGUUUGGACUGGGCAGAGCUCUACACUGCGUGGCAAAGUGGCUGUGGCUAGACUGCCUCCCUGGAUUCCCCGACACUCAGCAGGGCAUCUCUGAGGGAAGUGCC | 0.04
UACGUAGGUGGUUUUCCCCUGAUAGUGCUAAGGGGGCCUGGAAGUUUGGACUGUGCAGAGCUCAACACGGCGUGGCAAAGUGGCUGUGGCUAGACUGCCUCUCUGGAUUCCUCGUCCCUCAGCAGGGCAUCUCCGAGAGAGAUGCC | 0.84
UACGUAGGUGGUUCUCCCCUGAUAUUGCUAAGGGGGCCUGGAAGCUUGGACUGGGCAGAGCUCAACACAGCGUGGCAAAGUGGCUGUAGCUAGACUGCCUCUCUGGAUUCCUCGUCACUCAGCAGGGCAUCCCUGAGAGAAAUGCC | 0.17
